# Data from PubChem BioAssay AID1479 (National Center for Advancing Translational Sciences (NCATS), 2009).
# In all, about 280,000 compounds went through this assay and about 820 (0.29%) were called active. Not shown: some 1% with an inconclusive outcome. Calls come from the whole dose curve; as a rule, active = well fitted curve in either direction with a large enough effect; inconclusive = small, poorly fitted or top-dose-only effect; inactive = flat fitted curve, though single readings scatter. The entries are a selection whose mix differs from that of the whole data set. Some structures have more than one record in an assay (separate samples or runs), and their calls can disagree.
# Assay: Total Fluorescence Counterscreen for Inhibitors of the Interaction of Thyroid Hormone Receptor and Steroid Receptor Coregulator 2
# Details: TRb/SRC2 Texas Red total fluorescence interference; series mostly up to 106 µM; fluorescence change, negative = quenching: at the top concentration
# From the text: NIH Molecular Libraries Probe Production Network [MLPCN]
# NIH Chemical Genomics Center [NCGC]
# Assay Provider: R. Kip Guy, St. Jude Children's Research Hospital
# Thyroid receptor (TR) regulates many homeostatic processes including basal metabolism, cardiovascular function, body weight, and lipid trafficking. TR modulators are potential therapeutics for obesity and hyperlipidemias but current thyroid analogs have undesirable side effects, particularly cardiac stimulation. To identify inhibitors that specifically prevent the interaction of TR with the steroid receptor […] 2 (SRC2), a fluorescence polarization assay was screened. This assay detects interaction of the ligand-binding domain of human TRb with a Texas Red labeled SRC2 peptide, corresponding to a 20 amino acid region of the nuclear receptor interaction domain (Arnold et al., 2006). Total fluorescence (555 nm excitation and 632 nm emission) was measured to identify potential fluorescent and light absorbing compounds. Such compounds may be artifacts that interfere with the fluorescence polarization assay.
# Arnold, L. A.; Estebanez-Perpina, E.; Togashi, M.; Shelat, A.; Ocasio, C. A.; McReynolds, A. C.; Nguyen, P.; Baxter, J. D.; Fletterick, R. J.; Webb, P.; Guy, R. K. A high-throughput screening method to identify small molecule inhibitors of thyroid hormone receptor coactivator binding. Sci STKE 2006, p 13.
# NCGC Assay Protocol Summary:
# For screening, 5 uL/well 0.6 uM TRb and 20 nM SRC2 Texas Red in protein buffer (20mM Tris hydrochloride, 100mM NaCl, 10% glycerol, 1mM EDTA, 0.01% NP-40, 1mM DTT, 1uM T3 and 5% DMSO) was dispensed into black solid 1536-well plates (Grenier) using a solenoid-based dispenser. Following transfer of 23 nL compound or DMSO vehicle by a pin tool, the plates were centrifuged 15 s at 1000 RPM and incubated 5 hr at ambient temperature. The plates were read by an Envision (Perkin Elmer) to detect fluorescence polarization of SRC2 Texas Red (555 nm excitation and 632 nm emission). Data were normalized to unbound (all components except TRb) and bound SRC2 Texas Red controls. Total fluorescence (TF) was calculated as follows: TF = S + 2P where S and P are fluorescence readings in the parallel and perpendicular channels, respectively.
# Keywords: NIH Roadmap, MLPCN, MLI, MLSMR, qHTS, NCGC, qHTS, thyroid hormone receptor, steroid receptor coactivator, fluorescence polarization
# % is set by controls: 0 for no effect and ±100 for the full control effect; potency is the fitted concentration of half-maximal effect; tags give direction and shape of the fitted curve or compound fluorescence and quenching.
Compound,Potency,"fluorescence change, negative = quenching"
Cc1cc(O)c2c(c1)C(=O)c1cc(O)cc(O)c1C2=O,inactive,–
CNC(=O)Oc1ccc2c(c1)[C@]1(C)CCN(C)[C@@H]1N2C,inactive,–
Cc1cc2c(C(C)C)c(O)c(O)c(C=O)c2c(O)c1-c1c(C)cc2c(C(C)C)c(O)c(O)c(C=O)c2c1O,–,inactive: -19.9% [at 53 µM]
C#C[C@@]1(O)CC[C@@H]2[C@@H]3CCC4=CC(=O)CC[C@@]4(C)[C@H]3CC[C@]21C,–,inactive: -5.63% [at 53 µM]
CN1C(=O)CCS(=O)(=O)[C@@H]1c1ccc(Cl)cc1,–,inactive: -3.38% [at 53 µM]
CC[C@@]1(O)C(=O)OCc2c1cc1n(c2=O)-c2cc3ccccc3nc2C1,inactive,–
CN(C)[C@@H]1C(=O)C(C(N)=O)=C(O)[C@@]2(O)C(=O)C3=C(O)c4c(O)cccc4[C@@](C)(O)C3CC12 (some centres not stated),–,inactive: -2.11%
NCC(CC(=O)O)c1ccc(Cl)cc1 (configuration not stated),inactive,–
O=c1ccn([C@@H]2O[C@H](COP(=O)(O)OP(=O)(O)O)[C@@H](O)[C@H]2O)c(=O)[nH]1,–,inactive: -1.1%
Cc1ccc(N)c(N)c1,–,inactive: -2.55%
CC(=O)Nc1nnc(S(N)(=O)=O)s1,inactive,–
CC(C)NCC(O)COc1cccc2[nH]ccc12 (configuration not stated),inactive,–
O=C1NC(=O)C(=C/C=C/c2coc3ccc(Br)cc3c2=O)C(=O)N1,active: 25.1 µM [fluorescent],–
Cc1ccccc1Cn1cnc2c(oc3ccccc32)c1=O,–,inactive: -1.6%
CC[C@@H](CO)NC(=O)[C@@H]1C=C2c3cccc4c3c(cn4C)C[C@H]2N(C)C1,inactive,–
CC(C)C[C@H](NC(=O)[C@H](Cc1ccccc1)NC(=O)CNC(=O)CNC(=O)[C@@H](N)Cc1ccc(O)cc1)C(=O)N[C@@H](CCCN=C(N)N)C(=O)N[C@@H](CCCN=C(N)N)C(=O)N[C@@H](CCC(N)=O)C(=O)N[C@@H](Cc1ccccc1)C(=O)N[C@@H](CCCCN)C(=O)N[C@H](C(=O)N[C@H](C(=O)N[C@H](C(=O)O)[C@@H](C)O)C(C)C)C(C)C,–,inactive: 0.948%
CCCN1CCC[C@@H]2Cc3n[nH]cc3C[C@H]21,–,inactive: -3.27%
Cc1cn([C@H]2C[C@H](O)[C@@H](CO)O2)c(=O)[nH]c1=O,inactive,–
CO/C1=C\C(C)=C\[C@@H](C)[C@@H](O)[C@@H](C)C/C(C)=C/C=C\[C@H](OC)C([C@@H](C)[C@@H](O)[C@H](C)[C@@]2(O)C[C@@H](O)[C@H](C)C(C(C)C)O2)OC1=O (some centres not stated),–,inactive: -7.11% [at 2.82 µM]
COC[C@H](C)N(C(=O)CCl)c1c(C)csc1C,–,inactive: -3.95% [at 201 µM]
CCN(CC)c1ccc(/C=C2/C(=O)NC(=O)N(Cc3ccco3)C2=O)cc1,–,inactive: 26.6%
CCCCC/C=C\C/C=C\C/C=C\C/C=C\CCCC(=O)OCCN,–,inactive: -0.644%
